This is an account of results in ChEMBL document CHEMBL1201862, “PubChem BioAssay data set” (2004).

SMILES strings stand for the structures.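 Exposure lasted 48 hours, with cells grown in 96-well plates and compounds tested at five concentrations. The concentration for 50% growth inhibition is given as GI50.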 Activity calls are given as the source filed them. Cut-off read from the data, not from the text of the source: active = GI50 up to about 1.1 µM and inactive = higher.

The test has as its system NCI-H322M. Nature of the test: NCI anticancer screen, dose series, 48 h.
Regarding `O=C1c2cccnc2-c2nccc3c2c1nc1ccc(Br)cc13`, the GI50 was active: 0.0327 µM.
Take `Cc1ccc(/C=C/C(=O)c2sc(-n3nc(-c4ccccc4)cc3-c3ccccc3)nc2C)cc1`: the GI50 was inactive: > 100 µM.
The figure for `CCOC(=O)c1ccc2nc(-c3ccc(S(=O)(=O)F)cc3)cc(O)c2c1` is inactive: 54.2 µM; for `O=C(NCO)NCOCn1c(=O)n(CO)c(=O)n(CO)c1=O` it is inactive: > 100 µM; for `C[N+](C)([O-])Cc1cc(-c2ccccc2)ccc1O` it is inactive: > 100 µM.
The figure for `Nc1ncnc2nn(C3OC(CO)C(O)C3O)nc12` (stereo not given) is inactive: 20.4 µM; for `Nc1cc(N2CCOCC2)nc(=O)n1-c1ccc(Cl)cc1` it is inactive: > 100 µM; for `Cc1cc2c(c(C#N)c1C)NC(=O)C(CC(=O)O)C2=O` (stereo not given) it is inactive: > 100 µM.
As for `O=C1CSC(c2cccc(Cl)c2)N1c1ccc(-n2c(-c3ccccc3)nc3ccccc3c2=O)cc1` (stereo not given), the figure is inactive: > 100 µM; as for `O=C1[C@@H]2C(c3ccccc3F)=NO[C@@H]2C(=O)N1c1ccc(Cc2ccc(N3C(=O)[C@H]4C(c5ccccc5F)=NO[C@H]4C3=O)cc2)cc1`, inactive: > 100 µM.
Turning to `CCOC(=O)/C(C(=O)Nc1ccc(F)cc1)=C(/N)N1CCCC1`, the GI50 was inactive: > 100 µM.
As for `COc1cc(CNC(=O)CCCCCCCCCCSSCCCCCCCCCCC(=O)NCc2ccc(O)c(OC)c2)ccc1O`, the figure is inactive: > 10 µM.
The figure for `O=C1/C(=C(\Nc2ccccc2)c2ccccc2)C=NN1c1ccccc1` is inactive: 81.5 µM; for `CCOC(=O)c1c[nH]cc1-c1cn(S(=O)(=O)c2ccccc2)cc1C` it is inactive: 29.4 µM.
The figure for `CCC12CCCC(=O)N1C(CO)C(c1ccccc1)O2` (stereo not given) is inactive: > 100 µM; for `C=CCC1=C(C)C[C@@H]2CCC(=O)C=C12` it is inactive: > 100 µM; for `Cc1cn(C2CC(/[N+]([O-])=N\Nc3ccc([N+](=O)[O-])cc3)C(CO)O2)c(=O)[nH]c1=O` (stereo not given) it is inactive: 23.7 µM.
For the compound `CCON1CC(C(=O)OC)=C(O)C1=O`, the GI50 is inactive: > 100 µM.
As for `Cc1cccc(NC(=S)Nc2ccc(Cl)cc2)n1`, the figure is inactive: > 100 µM; as for `O=C1c2ccccc2/C=C\C(c2ccccc2)=N/N1c1ccccc1Cl`, inactive: 20.7 µM.
The figure for `Cc1ccc(Nc2nc3c(s2)C(=O)c2ccccc2C3=O)c(C)c1` is inactive: 14.8 µM; for `O=C(NCCCN(CCCCN(CCCNC(=O)C(F)(F)F)Cc1ccccc1)Cc1ccccc1)C(F)(F)F` it is inactive: 14.1 µM; for `CN(C)C1(N(C)C)Oc2c(c(=O)n(C)c(=O)n2C)C(c2ccc(Br)cc2)C1(F)F` (stereo not given) it is inactive: > 100 µM.
The figure for `Cc1c(NC(=O)CSC(=S)N(C)C)c(=O)n(-c2ccccc2)n1C` is inactive: > 100 µM; for `C[C@@H]1CC(=O)C[C@@H]2CC[C@H]3[C@@H]4CC[C@H](OC(=O)c5cccc6cc7ccccc7nc56)[C@H]4CC[C@@H]3[C@H]21` it is inactive: 26.3 µM; for `CC(C)N(C(=O)C12C3C4C5C3C1(C(=O)N(C(C)C)C(C)C)C5(C#N)C42)C(C)C` (stereo not given) it is inactive: > 100 µM.
On to `CCOC(=O)C(C(=O)OCC)=C1C=C(c2ccccc2)c2ccccc21`, for which the GI50 is inactive: > 100 µM.
As for `O=c1nc2n(cc1/C=C\Br)C1CC(O)C(CO2)O1` (stereo not given), the figure is inactive: > 100 µM; as for `COc1ccc2c(c1)-c1c(c3cc(OC)ccc3n1CCN(C)C)CC2`, inactive: 13.4 µM.
As for `O=c1c2ccccc2[nH]n1Cc1ccccc1`, the figure is inactive: > 100 µM.
In the case of `O=C(Cn1c(=O)oc2ccc(C(=O)c3ccc(F)cc3)cc21)c1ccc([N+](=O)[O-])cc1`, the GI50 is inactive: 37.1 µM.
The figure for `O=C(CCl)NNC1=Nc2ccc(Cl)cc2SC1` is inactive: 5.47 µM; for `Cc1cc(=O)[nH]c2cc(NC(=O)C(C)NC(=O)C(C)NC(=O)C(C)NC(=O)OC(C)(C)C)ccc12` (stereo not given) it is inactive: > 15 µM.
As for `Cc1nc2c(cc1C(=O)NN)c(=O)n(C)c(=O)n2C`, the figure is inactive: > 100 µM; as for `O=C(NC1CCC(=O)N1C(=O)OCc1ccccc1)OCc1ccccc1` (stereo not given), inactive: > 100 µM; as for `CCOC(=O)CC1CCN(C(=O)c2ccccc2)C2Cc3c([nH]c4ccccc34)C12C[N+](=O)[O-]` (stereo not given), inactive: > 100 µM.
With `CCOC(=O)/C(=C/c1cccc(Cl)c1)N(CC)CC`, the GI50 is inactive: 58.2 µM.
As for `COc1cc(CNc2nc3cc(C(F)(F)F)ccc3nc2C(=O)O)cc(OC)c1OC`, the figure is inactive: 23.2 µM; as for `COC(=O)C1(c2ccc(OC)cc2)NC(c2ccccc2)C2C(=O)N(c3ccc(OC)cc3)C(=O)C21` (stereo not given), inactive: > 100 µM; as for `CC1(C)c2ccccc2C(=O)C12CCC(=O)CC2`, inactive: > 100 µM.
On to `O=C1C(c2ccccc2)=C(c2ccccc2)C(c2ccc(Sc3ccc(C4=C(c5ccccc5)C(=O)C(c5ccccc5)=C4c4ccccc4)cc3)cc2)=C1c1ccccc1`, for which the GI50 is inactive: > 100 µM.
The figure for `Cc1cccc(C)c1NC(=O)C(=O)Nn1c(NN)nc2ccccc2c1=O` is inactive: > 100 µM; for `CC(=O)Nc1cccc(/N=N/N(C)C)c1` it is inactive: > 100 µM.
`c1ccc2c(c1)SC(=C1Sc3ccccc3S1)S2`: the GI50 is inactive: > 100 µM.
The figure for `CN(C)c1ccc(/C=C2\N=C(N/N=C/c3ccc(N(C)C)cc3)NC2=O)cc1` is inactive: > 100 µM; for `CC1=NC(=O)C(C)(c2ccccc2)N1CCc1ccccc1` (stereo not given) it is inactive: 56.5 µM.
As for `CN(C)C1C(CO)OC(n2cnc3c(N)ncnc32)C1O` (stereo not given), the figure is inactive: > 100 µM; as for `CC1(Cl)CC(C)(/C=C/Cl)C(Cl)CC1Cl` (stereo not given), inactive: 19.9 µM.
As for `CO[P@]1(=O)O[C@@H](c2ccccc2)[C@H](O)[C@@]1(O)c1ccccc1`, the figure is inactive: > 100 µM; as for `COc1cccc(-c2cc(=O)c3cc(N4CCCCC4)ccc3[nH]2)c1`, active: 0.0156 µM.
For `CN(C)/C=C/C=C(/C=N/S(=O)(=O)C(F)(F)F)C1C=CN(S(=O)(=O)C(F)(F)F)C=C1`, the GI50 is inactive: 36.5 µM.
On to `CNC(=S)NC(=S)N(C)C`, for which the GI50 was inactive: > 100 µM.
As for `O=C(NCCCCCCCCNC(=O)c1cccc2ccccc12)c1cccc2ccccc12`, the figure is inactive: > 80.5 µM; as for `COc1c2cc([N+](=O)[O-])cc1CN(C(=O)C(F)(F)F)CCOCCN(C(=O)C(F)(F)F)C2`, inactive: > 100 µM.
The figure for `CN(Cc1ccccc1)c1cc(=O)n(C)c(=O)[nH]1` is inactive: > 100 µM; for `CCOc1ccc2c(c1)[n+]([O-])c(-c1ccccc1Cl)c(N)[n+]2[O-]` it is inactive: > 100 µM; for `Cc1nc2c(=O)[nH]c3ccc(Cl)cc3c2o1` it is inactive: > 100 µM.
Take `CCN(CC)c1ccc(/C=C/C=C2C(=O)NC(=S)NC2=O)cc1`: the GI50 was inactive: > 100 µM.
As for `COc1ccc(COCC[C@H](C)OC2OC(CO[Si](C)(C)C(C)(C)C)C(OC(=O)CCCN=[N+]=[N-])C(OC(=O)CCCN=[N+]=[N-])C2OC(=O)CCCN=[N+]=[N-])cc1` (stereo not given in full), the figure is inactive: > 100 µM; as for `CNc1ccc(C(=O)CC(O)CCC(C)C2OC(=O)CC(O)CC(=O)CC(O)CC(O)CC(O)CC(O)CC3(O)CC(O)C(C(=O)NCCN(C)C)C(CC(OC4OC(C)C(O)C(NC(=O)CN5CCN(C)CC5)C4O)\C=C/C=C\C=C/C=C/C=C/C=C\C=C/C2C)O3)cc1` (stereo not given), inactive: 5.93 µM; as for `Clc1ccc2c(NCCCC/N=C/c3ccccc3)ccnc2c1`, inactive: 14.7 µM.
As for `CC(O)C(N/C=C1/N=C(c2ccccc2)OC1=O)C(=O)O` (stereo not given), the figure is inactive: > 100 µM.
The figure for `CCOc1ccc(NCC2CC/C(=C\c3ccc(O)cc3)C2=O)cc1` (stereo not given) is inactive: 44 µM; for `OCCc1cnco1` it is inactive: > 100 µM; for `C=CCC1CC(n2cc(C)c(=O)[nH]c2=O)OC1CO[Si](C)(C)C(C)(C)C` (stereo not given) it is inactive: 15.2 µM.
For `Cn1nc(C(=O)N2CC(CCl)c3c2cc([N+](=O)[O-])c2ccccc32)cc1NC(=O)Nc1cc(C(=O)N2CC(CCl)c3c2cc([N+](=O)[O-])c2ccccc32)nn1C` (stereo not given), the GI50 was inactive: > 100 µM.
Regarding `CC(Oc1ccc(OCC2CCCCC2)cc1)C(=O)N(CCO)CCO` (stereo not given), the GI50 was inactive: > 100 µM.
The figure for `COc1cc(O)c2c(=O)cc(C3(OC(C)=O)C=CC(OC4OC(CO)C(O)C(O)C4O)C=C3)oc2c1` (stereo not given) is inactive: > 100 µM; for `CCN(CC)CCNC(=O)c1ccc(C)c(OCc2ccccc2)c1[N+](=O)[O-]` it is inactive: > 69.2 µM; for `c1ccc2c(CN3CCC(C4CCN(Cc5cccc6ccccc56)CC4)CC3)cccc2c1` it is inactive: 9.66 µM.
The figure for `COC(=O)/C(Cl)=C1/CC1COCc1ccccc1` (stereo not given) is inactive: > 100 µM.
As for `CN(CCNC(=O)c1nn(-c2ccc(Cl)cc2Cl)c2c1Cc1ccccc1-2)CCNC(=O)c1nn(-c2ccc(Cl)cc2Cl)c2c1Cc1ccccc1-2`, the figure is inactive: 13.5 µM; as for `CCSCCCN(CCCSCC)CCCSCC`, inactive: > 100 µM.
In the case of `CC1(C)C2CCC1(CC(=O)O)C(Cl)C2` (stereo not given), the GI50 is inactive: > 100 µM.
The figure for `CCN(CC)C(=O)CCNC(C)Cc1c[nH]c2ccccc12` (stereo not given) is inactive: > 100 µM.
The figure for `COc1cc(OC)cc(-c2nc3cc(F)ccc3s2)c1` is inactive: 94.4 µM.
As for `C[C@]12C[C@@H](OC(=O)[C@]1(C)O)[C@@H]([C@]1(O)CC[C@H]3[C@@H]4C[C@H]5O[C@]56C[C@H]5O[C@H]5C(=O)[C@]6(C)[C@H]4CC[C@@]31C)C2`, the figure is inactive: > 50 µM; as for `COc1cccc(-c2cc(=O)c3ccccc3o2)c1N`, inactive: 81.3 µM.
As for `Cc1cnc2nc(-c3ccc4ccccc4c3)cc(O)c2c1`, the GI50 is active: 0.446 µM.
On to `COc1ccccc1-c1cc(O)c2cccnc2n1`, for which the GI50 was inactive: 43.2 µM.
